From patent publication US11685745B2, “Substituted benzoxazole and benzofuran compounds as PDE7 inhibitors” (Dart NeuroScience, LLC, priority 2017, dated 2023)

These molecules were tested against T1, N-terminal truncated recombinant human PDE7B enzyme (Homo sapiens (Human), UniProt Q9NP56) (assay: PDE7 inhibition, IMAP TR-FRET enzymatic assay using PDE7B). Settings: negative log of half-maximal molar inhibitory concentration, recombinant human PDE7B (91-450aa), 50 nM FAM-cAMP.
For `Cc1nc2cc(Cl)c3c(c2o1)C1(CCC(C)(C)CC1)NC(=O)N3` [Example 12, 5-Chloro-2,4′,4′-trimethyl-7,8-dihydro-6H-spiro[[1,3]oxazolo[5,4-f]quinazoline-9,1′-cyclohexane]-7-one], the “PDE7b (pIC50)” value was less than 6. For `O=C1Nc2c(Cl)cc3nc(CN4CCNCC4)oc3c2C2(CCCCC2)N1` [Example 37, 5-Chloro-2-(piperazin-1-ylmethyl)-7,8-dihydro-6H-spiro[[1,3]oxazolo[5,4-f]quinazoline-9,1′-cyclohexane]-7-one], the “PDE7b (pIC50)” value was greater than 8. In the case of `O=C1Nc2c(Cl)cc3nc(CNCC(F)(F)F)oc3c2C2(CCCCC2)N1` [Example 43, 5-Chloro-2-{[(2,2,2-trifluoroethyl)amino]methyl}-7,8-dihydro-6H-spiro[[1,3]oxazolo[5,4-f]quinazoline-9,1′-cyclohexane]-7-one], the “PDE7b (pIC50)” value is reported as greater than 8. For `O=C1Nc2c(Cl)cc3nc(CN4CCC5(CCOC5=O)CC4)oc3c2C2(CCCCC2)N1` [Example 64, 5-Chloro-2-({1-oxo-2-oxa-8-azaspiro[4.5]decan-8-yl}methyl)-7,8-dihydro-6H-spiro[[1,3]oxazolo[5,4-f]quinazoline-9,1′-cyclohexane]-7-one], the “PDE7b (pIC50)” value was greater than 8. For `CN(CC(=O)N(C)C)Cc1nc2cc(Cl)c3c(c2o1)C1(CCCCC1)NC(=O)N3` [Example 79, 2-({5-Chloro-7-oxo-7,8-dihydro-6H-spiro[[1,3]oxazolo[5,4-f]quinazoline-9,1′-cyclohexane]-2-ylmethyl}(methyl)amino)-N,N-dimethylacetamide], the “PDE7b (pIC50)” value was greater than 8. With `CN(CCC(=O)N(C)C)Cc1nc2cc(Cl)c3c(c2o1)C1(CCCCC1)NC(=O)N3` [Example 123, 3-({5-Chloro-7-oxo-7,8-dihydro-6H-spiro[[1,3]oxazolo[5,4-f]quinazoline-9,1′-cyclohexane]-2-ylmethyl}(methyl)amino)-N,N-dimethylpropanamide] the “PDE7b (pIC50)” value was greater than 8. In the case of `CN(C)C(=O)COCc1nc2cc(Cl)c3c(c2o1)C1(CCCCC1)NC(=O)N3` [Example 176, 2-{5-Chloro-7-oxo-7,8-dihydro-6H-spiro[[1,3]oxazolo[5,4-f]quinazoline-9,1′-cyclohexane]-2-ylmethoxy}-N,N-dimethylacetamide], the “PDE7b (pIC50)” value is reported as greater than 8. `CN(C)C(=O)CCN(C)C(=O)c1nc2cc(Cl)c3c(c2o1)C1(CCCCC1)NC(=O)N3` [Example 189, 3-{1-5-Chloro-7-oxo-7,8-dihydro-6H-spiro[[1,3]oxazolo[5,4-f]quinazoline-9,1′-cyclohexane]-2-yl-N-methylformamido}-N,N-dimethylpropanamide] was tested, and the “PDE7b (pIC50)” value was greater than 8. In the case of `CN(C)C(=O)CNCc1nc2cc(F)c3c(c2o1)C1(CCCCC1)NC(=O)N3` [Example 225, 2-({5-Fluoro-7-oxo-7,8-dihydro-6H-spiro[[1,3]oxazolo[5,4-f]quinazoline-9,1′-cyclohexane]-2-ylmethyl}amino)-N,N-dimethylacetamide], the “PDE7b (pIC50)” value is reported as greater than 8. In the case of `N#Cc1ccc(CNC(=O)c2cc3cc(Cl)c4c(c3o2)C2(CCCCC2)NC(=O)N4)cc1` [Example 332, 5′-Chloro-N-[(4-cyanophenyl)methyl]-7′-oxo-7′,8′-dihydro-6′H-spiro[cyclohexane-1,9′-furo[2,3-f]quinazoline]-2′-carboxamide], the “PDE7b (pIC50)” value is reported as greater than 8. With `O=C1Nc2c(Cl)cc3cc(C(=O)NCc4ccc(OC(F)F)cn4)oc3c2C2(CCCCC2)N1` [Example 334, 5′-Chloro-N-{[5-(difluoromethoxy)pyridin-2-yl]methyl}-7′-oxo-7′,8′-dihydro-6′H-spiro[cyclohexane-1,9′-furo[2,3-f]quinazoline]-2′-carboxamide] the “PDE7b (pIC50)” value was greater than 8. For `O=C1Nc2c(Cl)cc3cc(C(=O)NC4C[C@@H]5[C@H](C4)C5(F)F)oc3c2C2(CCCCC2)N1` (stereo partly drawn) [Example 336, 5′-Chloro-N-[(1R,5S)-6,6-difluorobicyclo[3.1.0]hexan-3-yl]-7′-oxo-7′,8′-dihydro-6′H-spiro[cyclohexane-1,9′-furo[2,3-f]quinazoline]-2′-carboxamide], the “PDE7b (pIC50)” value was greater than 8. For `O=C1Nc2c(Cl)cc3cc(C(=O)NCC(F)(F)F)oc3c2C2(CCCCC2)N1` [Example 378, 5′-Chloro-7′-oxo-N-(2,2,2-trifluoroethyl)-7′,8′-dihydro-6′H-spiro[cyclohexane-1,9′-furo[2,3-f]quinazoline]-2′-carboxamide], the “PDE7b (pIC50)” value was greater than 8. With `CCc1cc(CN(C)C(=O)c2cc3cc(Cl)c4c(c3o2)C2(CCCCC2)NC(=O)N4)on1` [Example 427, 5′-Chloro-N-[(3-ethyl-1,2-oxazol-5-yl)methyl]-N-methyl-7′-oxo-7′,8′-dihydro-6′H-spiro[cyclohexane-1,9′-furo[2,3-f]quinazoline]-2′-carboxamide] the “PDE7b (pIC50)” value was greater than 8. For `O=C1Nc2c(Cl)cc3cc(CNCCCN4CCCC4=O)oc3c2C2(CCCCC2)N1` [Example 492, 5′-Chloro-2′-({[3-(2-oxopyrrolidin-1-yl)propyl]amino}methyl)-7′,8′-dihydro-6′H-spiro[cyclohexane-1,9′-furo[2,3-f]quinazoline]-7′-one], the “PDE7b (pIC50)” value was greater than 8. For `CCN(Cc1cc2cc(Cl)c3c(c2o1)C1(CCCCC1)NC(=O)N3)C(C)C` [Example 506, 5′-Chloro-2′-{[ethyl(propan-2-yl)amino]methyl}-7′,8′-dihydro-6′H-spiro[cyclohexane-1,9′-furo[2,3-f]quinazoline]-7′-one], the “PDE7b (pIC50)” value was less than 6. `O=C1Nc2c(Cl)cc3cc(CN4CCC(N5CCOCC5)CC4)oc3c2C2(CCCCC2)N1` [Example 518, 5′-Chloro-2′-{[4-(morpholin-4-yl)piperidin-1-yl]methyl}-7′,8′-dihydro-6′H-spiro[cyclohexane-1,9′-furo[2,3-f]quinazoline]-7′-one] was tested, and the “PDE7b (pIC50)” value was less than 6. With `CN(C)C1CCN(Cc2cc3cc(Cl)c4c(c3o2)C2(CCCCC2)NC(=O)N4)CC1` [Example 534, 5′-Chloro-2′-{[4-(dimethylamino)piperidin-1-yl]methyl}-7′,8′-dihydro-6′H-spiro[cyclohexane-1,9′-furo[2,3-f]quinazoline]-7′-one] the “PDE7b (pIC50)” value was less than 6. With `O=C1Nc2c(Cl)cc3cc(CN4Cc5cccnc5C4)oc3c2C2(CCCCC2)N1` [Example 545, 5′-Chloro-2′-{5H,6H,7H-pyrrolo[3,4-b]pyridin-6-ylmethyl}-7′,8′-dihydro-6′H-spiro[cyclohexane-1,9′-furo[2,3-f]quinazoline]-7′-one] the “PDE7b (pIC50)” value was greater than 8. In the case of `CN1CCC(N(C)Cc2cc3cc(Cl)c4c(c3o2)C2(CCCCC2)NC(=O)N4)CC1` [Example 562, 5′-Chloro-2′-{[methyl(1-methylpiperidin-4-yl)amino]methyl}-7′,8′-dihydro-6′H-spiro[cyclohexane-1,9′-furo[2,3-f]quinazoline]-7′-one], the “PDE7b (pIC50)” value is reported as less than 6. With `CC1(C)C2CN(Cc3cc4cc(Cl)c5c(c4o3)C3(CCCCC3)NC(=O)N5)CC21` (stereo not drawn) [Example 563, 5′-Chloro-2′-({6,6-dimethyl-3-azabicyclo[3.1.0]hexan-3-yl}methyl)-7′,8′-dihydro-6′H-spiro[cyclohexane-1,9′-furo[2,3-f]quinazoline]-7′-one] the “PDE7b (pIC50)” value was less than 6.

Each molecule was assayed against T1, N-terminal truncated recombinant human PDE7B enzyme (assay: biochemical). Settings: not given.
For `COCCN(C)C(=O)c1cc2cc(Cl)c3c(c2o1)C1(CCCCC1)NC(=O)N3` [Example 232, 5′-Chloro-N-(2-methoxyethyl)-N-methyl-7′-oxo-7′,8′-dihydro-6′H-spiro[cyclohexane-1,9′-furo[2,3-f]quinazoline]-2′-carboxamide], the IC50 was 10 to 100 nM. Work on `CS(=O)(=O)CCNCc1cc2cc(Cl)c3c(c2o1)C1(CCCCC1)NC(=O)N3` [Example 482, 5′-Chloro-2′-{[(2-methanesulfonylethyl)amino]methyl}-7′,8′-dihydro-6′H-spiro[cyclohexane-1,9′-furo[2,3-f]quinazoline]-7′-one] yielded an IC50 of 10 to 100 nM. For `O=C1Nc2c(Cl)cc3cc(CN4CCN(C(=O)C5CCCO5)CC4)oc3c2C2(CCCCC2)N1` (stereo not drawn) [Example 489, 5′-Chloro-2′-{[4-(oxolane-2-carbonyl)piperazin-1-yl]methyl}-7′,8′-dihydro-6′H-spiro[cyclohexane-1,9′-furo[2,3-f]quinazoline]-7′-one], the IC50 was 100 to 1000 nM.
